Test results published in PubChem BioAssay AID504339 (National Center for Advancing Translational Sciences (NCATS), 2011).
Among all 390,000 compounds or so, about 17,000 (4.4%) were called active. The inconclusive results got no clear call from the source; some entries with a clear call stand among them for comparison. Calls come from the whole dose curve; as a rule, active = well fitted inhibition curve with a large enough effect; inconclusive = small, poorly fitted or top-dose-only effect; inactive = no such curve, though single readings can be large or run the other way. Where the call is inconclusive, the potency comes from a doubtful curve fit.

The molecules below were run against Lysine-specific demethylase 4A (Homo sapiens) (UniProt O75164) (assay: qHTS Assay for Inhibitors of JMJD2A-Tudor Domain). Details: AlphaScreen JMJD2A-Tudor / H3K4me3 peptide binding; series mostly up to 114 µM.
Note: nearly all actives have a fitted effect of over 50% in size.
Potency is the fitted concentration of half-maximal effect; tags give direction and shape of the fitted curve.

UniProt O75164, sequence (O75164 whole entry, looked up, the tested form may be a part): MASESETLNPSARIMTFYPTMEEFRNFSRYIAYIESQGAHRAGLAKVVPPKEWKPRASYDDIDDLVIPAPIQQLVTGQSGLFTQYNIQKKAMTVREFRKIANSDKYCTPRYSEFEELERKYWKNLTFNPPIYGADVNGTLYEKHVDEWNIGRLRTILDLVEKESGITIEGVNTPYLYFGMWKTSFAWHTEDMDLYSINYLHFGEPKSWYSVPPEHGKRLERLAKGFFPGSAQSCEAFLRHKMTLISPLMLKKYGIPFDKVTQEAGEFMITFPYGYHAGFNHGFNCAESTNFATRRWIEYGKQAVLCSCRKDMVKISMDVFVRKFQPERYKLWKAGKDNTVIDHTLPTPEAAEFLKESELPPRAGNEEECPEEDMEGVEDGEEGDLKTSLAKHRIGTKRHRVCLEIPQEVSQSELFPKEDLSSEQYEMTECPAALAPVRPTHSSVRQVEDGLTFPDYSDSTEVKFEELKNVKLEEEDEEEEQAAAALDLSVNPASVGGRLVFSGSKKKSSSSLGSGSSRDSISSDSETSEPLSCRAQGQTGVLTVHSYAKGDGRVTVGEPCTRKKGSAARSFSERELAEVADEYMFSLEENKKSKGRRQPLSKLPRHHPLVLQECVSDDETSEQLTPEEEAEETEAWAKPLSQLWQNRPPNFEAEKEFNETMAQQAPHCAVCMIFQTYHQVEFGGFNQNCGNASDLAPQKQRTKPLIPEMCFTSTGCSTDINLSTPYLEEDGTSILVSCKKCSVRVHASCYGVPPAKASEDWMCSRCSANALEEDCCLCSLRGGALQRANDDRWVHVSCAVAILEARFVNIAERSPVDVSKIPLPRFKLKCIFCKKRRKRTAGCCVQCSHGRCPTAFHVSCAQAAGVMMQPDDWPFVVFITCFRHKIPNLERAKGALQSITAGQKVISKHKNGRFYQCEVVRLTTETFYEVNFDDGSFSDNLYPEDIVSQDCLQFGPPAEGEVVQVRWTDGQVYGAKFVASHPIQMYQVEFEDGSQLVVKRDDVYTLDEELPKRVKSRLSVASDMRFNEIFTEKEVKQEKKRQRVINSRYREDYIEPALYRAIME

Question: `Cc1ccc(Cl)cc1NC(=O)Cn1nc2c(cc1=O)CC(C)CC2` (stereo not given) was tested. Which Potency did it give?
Answer: inactive

Question: With `O=C(NCCc1ccccc1F)C1CCCN(c2nc3ccccc3s2)C1` (stereo not given) as the molecule, how does the Potency read?
Answer: inactive

Question: `C=CCn1c(O)c(N=NC(=O)CNC(=O)Cc2ccccc2)c2ccccc21` was tested. Which Potency did it give?
Answer: inactive

Question: `O=C(CSc1ccc2nnc(-c3cccnc3)n2n1)NCC1CCCO1` (stereo not given) was tested. Which Potency did it give?
Answer: inactive

Question: Which Potency does the source give for `COc1ccc(OC)c(-c2nc(C(=O)NCC3CCCO3)cc3c2[nH]c2ccccc23)c1` (stereo not given) here?
Answer: inconclusive: 79.4 µM [inhibitor, partial curve]

Question: With `Cc1c(CCC(=O)O)c(=O)oc2c(C)c3occ(-c4ccc(Cl)cc4)c3cc12` as the molecule, how does the Potency read?
Answer: inconclusive: 89.1 µM [inhibitor, partial curve]

Question: For `CC(NC(=O)c1ccccc1)c1nc2ccccc2n1Cc1ccc(Cl)cc1` (stereo not given), which Potency is on record?
Answer: inactive

Question: Which Potency does the source give for `Cc1ccc(C)c(N=Cc2cc3c(cc2[N+](=O)[O-])OCO3)c1` here?
Answer: active: 50.1 µM

Question: Which Potency does the source give for `CN(C)c1ccc(NC(=O)COC(=O)c2cc(Cl)ccc2[N+](=O)[O-])cc1` here?
Answer: active: 25.1 µM

Question: How did the Potency turn out when `Cc1ccc(C2=N/C(=C\c3cccs3)C(=O)N2Nc2ccccc2)cc1` was run?
Answer: inconclusive: 22.4 µM [inhibitor, full curve]

Question: How did the Potency turn out when `O=C(NCCNc1ccc(Cl)cc1[N+](=O)[O-])c1ccccc1F` was run?
Answer: inconclusive: 44.7 µM [inhibitor, partial curve]

Question: With `Cc1ccc(-c2cc(C(=O)Nc3ccc4c(c3)OCCO4)c3ccccc3n2)cc1` as the molecule, how does the Potency read?
Answer: inconclusive: 79.4 µM [inhibitor, partial curve]

Question: How did the Potency turn out when `COc1cc(CN(CC2CCCO2)C(=O)c2ccccc2F)cc(OC)c1OC` (stereo not given) was run?
Answer: inactive

Question: For `CC(C)Oc1ccc(C(=O)N/N=C/c2ccc(-c3ccc(S(=O)(=O)Nc4ncccn4)cc3)o2)cc1`, which Potency is on record?
Answer: inconclusive: 79.4 µM [inhibitor, single point]

Question: For `CN1CCN(/N=C/c2nc(-c3ccccc3)n3ccccc23)CC1`, which Potency is on record?
Answer: inconclusive: 31.6 µM [inhibitor, single point]

Question: For `CCCN1C(=O)/C(=C/c2ccc(C)s2)SC1=Nc1ccc(OC)cc1`, which Potency is on record?
Answer: inconclusive: 44.7 µM [inhibitor, partial curve]

Question: Which Potency does the source give for `CN(C)c1ccc(NC(=O)c2ccc(Cn3cc([N+](=O)[O-])cn3)cc2)cc1` here?
Answer: active: 50.1 µM

Question: Which Potency does the source give for `O=C(NC(=S)Nc1cccc(C(F)(F)F)c1)c1ccc2nonc2c1` here?
Answer: inconclusive: 56.2 µM [inhibitor, partial curve]

Question: With `O=C(NCCCn1ccnc1)C(=O)NCC1OCCN1S(=O)(=O)c1ccccc1` (stereo not given) as the molecule, how does the Potency read?
Answer: inconclusive: 31.6 µM [inhibitor, single point]

Question: Which Potency does the source give for `O=C(O)CCc1ccc(-c2cccs2)n1-c1ccc(C(=O)O)cc1` here?
Answer: inconclusive: 79.4 µM [inhibitor, partial curve]

Question: Which Potency does the source give for `O=C(CCn1cccn1)Nc1ccc2c(c1)OCO2` here?
Answer: inconclusive: 44.7 µM [inhibitor, partial curve]

Question: `CC1CCCC(NC(=O)C2CCC(CNc3c(N4CCCC4)c(=O)c3=O)CC2)C1C` (stereo not given) was tested. Which Potency did it give?
Answer: inactive

Question: For `Cc1c(OC(C)C(=O)NCc2ccncc2)ccc2c3c(c(=O)oc12)CCC3` (stereo not given), which Potency is on record?
Answer: inconclusive: 3.98 µM [inhibitor, partial curve, poor fit]

Question: Which Potency does the source give for `Cc1ccc(OCc2ccccc2Br)c([N+](=O)[O-])n1` here?
Answer: inactive

Question: `O=C(OCC(=O)N1CCCC1)c1ccccc1O` was tested. Which Potency did it give?
Answer: inactive

Question: With `Cc1nc(NCc2ccco2)c2c(C)c(C)sc2n1` as the molecule, how does the Potency read?
Answer: active: 3.16 µM

Question: For `CCCCSc1nnc(-c2ccc(NC(=O)CC)cc2)n1C`, which Potency is on record?
Answer: inconclusive: 89.1 µM [inhibitor, single point]

Question: With `Cc1ccc(S(=O)(=O)N(C)/N=C/C=C/c2ccccc2)cc1` as the molecule, how does the Potency read?
Answer: inactive

Question: For `CCN(CC)CCCN=C1N[C@@H](c2cccc(C(F)(F)F)c2)C(C(=O)OC)=C(C)N1CC`, which Potency is on record?
Answer: active: 25.1 µM

Question: For `COc1cccc(N2C(=O)c3ccccc3C2=O)n1`, which Potency is on record?
Answer: inactive

Question: With `Clc1ccc(N/N=C/c2cccnc2)cc1` as the molecule, how does the Potency read?
Answer: inconclusive: 44.7 µM [inhibitor, single point]

Question: Which Potency does the source give for `CCOc1ccc(CNC(=O)C2CCN(c3nnc(-n4cccc4CNc4ccc(C)cc4)s3)CC2)cc1OC` here?
Answer: inactive

Question: With `COc1ccc(/C=N/N=C2/NC(=O)C(CC(=O)O)S2)cc1OCc1ccc(Cl)cc1` (stereo not given) as the molecule, how does the Potency read?
Answer: inconclusive: 63.1 µM [inhibitor, single point]

Question: For `O=C(CCc1ccccc1)Nc1nn[nH]n1`, which Potency is on record?
Answer: inconclusive: 31.6 µM [inhibitor, single point]

Question: With `N#Cc1ccc(COC(=O)c2ccc(N3CCCC3)c([N+](=O)[O-])c2)cc1` as the molecule, how does the Potency read?
Answer: inconclusive: 10 µM [inhibitor, full curve, poor fit]

Question: `CC1(NC(=O)CCc2nc3sc4c(c3c(=O)[nH]2)CCCC4)CCS(=O)(=O)C1` (stereo not given) was tested. Which Potency did it give?
Answer: inconclusive: 17.8 µM [inhibitor, full curve]

Question: With `O=C(Nc1ccc(Cl)cc1)Nc1nnc(CSCc2ccc(Cl)cc2)s1` as the molecule, how does the Potency read?
Answer: inactive

Question: With `Cc1cc(C)cc(NC(=O)N2CCC(N3CCCCC3)CC2)c1` as the molecule, how does the Potency read?
Answer: inactive

Question: How did the Potency turn out when `CC(=O)N1CC(C)Sc2ccc(S(=O)(=O)NCCc3cccc(C)c3)cc21` (stereo not given) was run?
Answer: inconclusive: 15.8 µM [inhibitor, full curve]

Question: `CCOC(=O)c1[nH]c(C)c(CCC(=O)NCc2ccccc2)c1C` was tested. Which Potency did it give?
Answer: inactive

Question: `COc1ccc(OC)c(NC(=O)Cc2coc3ccc(C(C)C)cc23)c1` was tested. Which Potency did it give?
Answer: inconclusive: 20 µM [inhibitor, partial curve]

Question: `Cc1cc(C)c2nc(-c3ccncc3)cc(C(=O)N3CCN(Cc4ccccc4Cl)CC3)c2c1` was tested. Which Potency did it give?
Answer: inconclusive: 50.1 µM [inhibitor, partial curve]

Question: Which Potency does the source give for `CCS(=O)(=O)Nc1cccc(C2=NN(S(=O)(=O)c3ccccc3)C(c3ccco3)C2)c1` (stereo not given) here?
Answer: inconclusive: 56.2 µM [inhibitor, partial curve, poor fit]

Question: For `O=C1C2C3C=CC(C3)C2C(=O)N1c1ccc(S(=O)(=O)Nc2nccs2)cc1` (stereo not given), which Potency is on record?
Answer: inconclusive: 39.8 µM [inhibitor, partial curve]

Question: `O=C(O)c1cccc(-c2ccc(/C=C3/SC(=Nc4ccccc4)N(Cc4cccnc4)C3=O)o2)c1` was tested. Which Potency did it give?
Answer: active: 44.7 µM

Question: Which Potency does the source give for `CC1CN(C(=O)COC(=O)c2ccc(N)c([N+](=O)[O-])c2)CC(C)O1` (stereo not given) here?
Answer: inactive

Question: For `CC(C)N1CCc2c(sc(NC(=O)c3ccc(C(=O)c4ccccc4)cc3)c2C(N)=O)C1`, which Potency is on record?
Answer: active: 56.2 µM

Question: For `COc1ccc(S(=O)(=O)N2CCN(c3ccccc3F)CC2)cc1-c1noc(C)n1`, which Potency is on record?
Answer: inactive

Question: Which Potency does the source give for `Cc1ccc(C)c(NC(=O)c2ccc3c(O)c(S(=O)(=O)c4ccc(Cl)cc4)c(=O)[nH]c3c2)c1` here?
Answer: inactive

Question: With `CCN(CC)c1nn2c(=O)c(C(=O)NCCc3ccccc3)cnc2s1` as the molecule, how does the Potency read?
Answer: inactive

Question: Which Potency does the source give for `O=C(CSc1nnc(-c2ccc(O)cc2)o1)NNC(=O)c1ccncc1` here?
Answer: inconclusive: 2.51 µM [inhibitor, partial curve, poor fit]

Question: For `COc1cc(C(=O)N2CCN(c3ccccc3)CC2)c([N+](=O)[O-])cc1OC`, which Potency is on record?
Answer: inconclusive: 39.8 µM [inhibitor, single point]

Question: How did the Potency turn out when `CCn1c(C(=O)NC(C)c2ccc3c(c2)OCCO3)cc2sccc21` (stereo not given) was run?
Answer: inconclusive: 50.1 µM [inhibitor, partial curve]

Question: `CCn1ccnc1CNC(=O)c1ccc2oc(CCCc3ccccc3)nc2c1` was tested. Which Potency did it give?
Answer: inconclusive: 28.2 µM [inhibitor, full curve]

Question: `C=CCn1c(SCC(=O)Nc2c(C)n(C)n(-c3ccccc3)c2=O)nc2scc(-c3ccccc3)c2c1=O` was tested. Which Potency did it give?
Answer: inactive

Question: How did the Potency turn out when `COc1ccccc1-c1sc2cc3c(cc2c1C#CCO)OCO3` was run?
Answer: inactive

Question: Which Potency does the source give for `CCCCOc1[nH]c2nc(-c3ccco3)n(Cc3ccco3)c(=N)c2c1C#N` here?
Answer: inconclusive: 50.1 µM [inhibitor, full curve, poor fit]

Question: Which Potency does the source give for `CCn1c2ccccc2c2cc(CN3CCN(C(=O)c4ccco4)CC3)ccc21` here?
Answer: active: 35.5 µM

Question: With `CN(C)C(CNC(=O)CSc1nc2sc3c(c2c(=O)n1C)CCCC3)c1ccccc1` (stereo not given) as the molecule, how does the Potency read?
Answer: inactive

Question: With `Oc1ccc(NCc2cccc(OCc3ccccc3)c2)cc1` as the molecule, how does the Potency read?
Answer: active: 50.1 µM

Question: How did the Potency turn out when `S=c1c2c(nc3nc[nH]n13)CCC2` was run?
Answer: active: 6.31 µM

Question: `Cn1cc([N+](=O)[O-])c(C(=O)Nc2ccc3nc(-c4ccccc4)[nH]c3c2)n1` was tested. Which Potency did it give?
Answer: inactive

Question: With `C/C(=N/NS(=O)(=O)c1ccc(C(C)C)cc1)c1ccncc1` as the molecule, how does the Potency read?
Answer: inactive

Question: With `c1ccc2c(c1)c1c(c3ccccc32)CN2CCCC2C1` (stereo not given) as the molecule, how does the Potency read?
Answer: inactive

Question: For `CCN(CC)c1nc(-c2nn[nH]n2)nc(N(CC)CC)n1`, which Potency is on record?
Answer: active: 89.1 µM

Question: With `CC(=O)c1c(C)[nH]c(C(=O)NC(C)c2ccccc2)c1C` (stereo not given) as the molecule, how does the Potency read?
Answer: inactive

Question: `COc1ccc2ccccc2c1-c1sc(Nc2ccccc2)n[n+]1-c1ccc(F)cc1` was tested. Which Potency did it give?
Answer: active: 39.8 µM

Question: `C=CCNC(=S)Nc1ccc(OC)c(S(=O)(=O)N2CCOCC2)c1` was tested. Which Potency did it give?
Answer: inactive

Question: With `O=C(COc1ccc([N+](=O)[O-])cc1)Nc1cccnc1` as the molecule, how does the Potency read?
Answer: inactive

Question: How did the Potency turn out when `CCOc1ccc(OCC(O)CN2CCN(S(=O)(=O)c3cccc(C(F)(F)F)c3)CC2)cc1` (stereo not given) was run?
Answer: inconclusive: 14.1 µM [inhibitor, single point]

Question: `N=C1/C(=C/c2ccc(OCc3ccccc3)cc2)C(=O)N=C2SC(CC(=O)N3CCOCC3)=NN12` was tested. Which Potency did it give?
Answer: inconclusive: 79.4 µM [inhibitor, partial curve]

Question: `CCOc1[nH]c(/N=C/c2ccc(OC)cc2)c(C#N)c1C#N` was tested. Which Potency did it give?
Answer: active: 25.1 µM

Question: How did the Potency turn out when `COc1ccc(Nc2nc(NCc3ccco3)nc(N/N=C/c3ccc(O)cc3)n2)cc1` was run?
Answer: inconclusive: 44.7 µM [inhibitor, partial curve]

Question: Which Potency does the source give for `S=c1nc[nH]c2c1sc1nc(-c3ccccc3)c3c(c12)CCCC3` here?
Answer: inconclusive: 100 µM [inhibitor, single point]

Question: With `CCCC(=O)Nc1c(C)n[nH]c1C` as the molecule, how does the Potency read?
Answer: inconclusive: 39.8 µM [inhibitor, partial curve]
